What all share (assay): pull-down; GST-tagged bait on Glutathione Sepharose 4b, IVTT 35S-Met-labelled prey, 1 h 25 °C, 50 mM HEPES pH 7.4, 150 mM NaCl, 0.1% Triton X-100, 0.5 mg/ml BSA; autoradiography; only the target purified
Test [1] has as its target T1, GST-tagged full-length CENP-C (Drosophila melanogaster) (UniProt Q9VHP9).
T1 sequence: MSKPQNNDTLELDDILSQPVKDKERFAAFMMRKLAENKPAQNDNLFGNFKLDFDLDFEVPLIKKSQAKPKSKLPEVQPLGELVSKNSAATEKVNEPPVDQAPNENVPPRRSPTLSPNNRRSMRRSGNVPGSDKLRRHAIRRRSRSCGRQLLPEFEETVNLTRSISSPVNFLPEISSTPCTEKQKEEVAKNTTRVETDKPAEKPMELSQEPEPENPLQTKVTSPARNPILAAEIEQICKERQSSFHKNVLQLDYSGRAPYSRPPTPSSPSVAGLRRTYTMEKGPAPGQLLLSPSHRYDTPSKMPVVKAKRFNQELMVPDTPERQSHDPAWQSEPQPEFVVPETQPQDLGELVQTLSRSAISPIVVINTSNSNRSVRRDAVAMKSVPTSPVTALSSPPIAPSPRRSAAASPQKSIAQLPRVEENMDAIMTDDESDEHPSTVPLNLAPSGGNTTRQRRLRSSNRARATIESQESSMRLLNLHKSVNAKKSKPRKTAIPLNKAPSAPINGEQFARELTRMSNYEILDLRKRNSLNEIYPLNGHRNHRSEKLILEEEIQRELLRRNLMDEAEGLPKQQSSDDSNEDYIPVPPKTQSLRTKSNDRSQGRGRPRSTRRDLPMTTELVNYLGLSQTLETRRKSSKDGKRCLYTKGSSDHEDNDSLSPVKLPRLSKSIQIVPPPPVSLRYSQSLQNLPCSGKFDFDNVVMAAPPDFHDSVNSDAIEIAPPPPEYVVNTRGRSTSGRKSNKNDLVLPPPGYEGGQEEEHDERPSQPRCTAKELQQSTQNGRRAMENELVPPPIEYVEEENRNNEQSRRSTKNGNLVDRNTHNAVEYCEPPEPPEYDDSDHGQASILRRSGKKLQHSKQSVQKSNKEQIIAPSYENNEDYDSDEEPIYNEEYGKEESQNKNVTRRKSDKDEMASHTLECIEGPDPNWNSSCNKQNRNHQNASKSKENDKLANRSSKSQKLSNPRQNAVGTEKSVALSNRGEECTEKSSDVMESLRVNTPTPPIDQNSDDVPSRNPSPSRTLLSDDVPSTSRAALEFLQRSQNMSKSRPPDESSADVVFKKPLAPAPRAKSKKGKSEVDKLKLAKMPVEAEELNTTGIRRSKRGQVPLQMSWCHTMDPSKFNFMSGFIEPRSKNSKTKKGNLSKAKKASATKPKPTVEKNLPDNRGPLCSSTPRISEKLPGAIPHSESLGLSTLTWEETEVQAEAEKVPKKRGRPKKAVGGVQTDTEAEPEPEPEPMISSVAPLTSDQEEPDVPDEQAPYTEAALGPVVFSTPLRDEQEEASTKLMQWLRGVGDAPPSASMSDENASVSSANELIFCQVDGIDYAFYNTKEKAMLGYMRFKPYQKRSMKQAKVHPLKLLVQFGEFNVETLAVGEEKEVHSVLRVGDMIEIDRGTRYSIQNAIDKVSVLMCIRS

For test [2], the target named is T2, GST-tagged Flfl^N (aa 1–361) (Drosophila melanogaster) (UniProt Q9VFS5).
T2 sequence: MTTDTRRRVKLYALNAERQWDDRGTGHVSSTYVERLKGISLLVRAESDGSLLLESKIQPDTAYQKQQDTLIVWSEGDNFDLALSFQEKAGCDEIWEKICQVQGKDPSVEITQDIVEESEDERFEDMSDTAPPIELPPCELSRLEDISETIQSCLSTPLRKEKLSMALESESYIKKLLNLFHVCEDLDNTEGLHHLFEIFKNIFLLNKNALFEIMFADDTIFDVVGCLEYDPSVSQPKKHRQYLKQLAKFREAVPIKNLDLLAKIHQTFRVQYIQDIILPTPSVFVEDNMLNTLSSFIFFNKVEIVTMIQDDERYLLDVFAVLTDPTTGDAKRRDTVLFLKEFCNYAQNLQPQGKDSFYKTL

Test [3] addresses T3, GST-tagged Flfl^M (aa 362–666) (Drosophila melanogaster) (UniProt Q9VFS5).
T3 sequence: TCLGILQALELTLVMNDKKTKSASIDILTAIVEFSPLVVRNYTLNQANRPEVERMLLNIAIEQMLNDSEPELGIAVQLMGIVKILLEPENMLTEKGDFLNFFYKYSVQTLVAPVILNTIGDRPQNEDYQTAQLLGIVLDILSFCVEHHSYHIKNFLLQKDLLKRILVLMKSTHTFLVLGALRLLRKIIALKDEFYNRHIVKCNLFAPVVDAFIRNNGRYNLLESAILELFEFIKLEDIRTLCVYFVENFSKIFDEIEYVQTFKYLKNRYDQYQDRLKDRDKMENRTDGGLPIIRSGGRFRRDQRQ

For test [4], the target named is T4, GST-tagged Flfl^1–168 (aa 1–168) (Drosophila melanogaster) (UniProt Q9VFS5).
T4 sequence: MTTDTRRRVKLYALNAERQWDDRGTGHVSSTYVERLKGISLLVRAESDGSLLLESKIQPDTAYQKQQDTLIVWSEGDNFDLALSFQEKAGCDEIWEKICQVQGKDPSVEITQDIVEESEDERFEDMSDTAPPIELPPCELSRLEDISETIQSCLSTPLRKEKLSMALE

Test [5] deals with T5, GST-tagged Flfl^169–361 (aa 169–361) (Drosophila melanogaster) (UniProt Q9VFS5).
T5 sequence: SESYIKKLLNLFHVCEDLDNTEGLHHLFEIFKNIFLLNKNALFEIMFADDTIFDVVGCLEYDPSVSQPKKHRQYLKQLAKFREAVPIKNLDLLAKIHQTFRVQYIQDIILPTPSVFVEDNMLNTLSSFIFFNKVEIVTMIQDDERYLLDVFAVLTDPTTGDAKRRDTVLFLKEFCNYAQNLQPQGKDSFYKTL

No constants are given. Whether binding was seen depends on the method and setting. In cells and extracts the contact can be indirect. Some results given as binding are weak or reduced against the parent protein; the word gives no strength. Sequences can lack the tags named with a protein.

B1: ^35S-Met-labelled PP4c (IVTT) (enzyme, UniProt O76932 1-307)
chain: MSDYSDLDRQIEQLKRCEIIKENEVKALCAKAREILVEEGNVQRVDSPVTVCGDIHGQFYDLKELFKVGGDVPEKNYLFMGDFVDRGYYSVETFLLLLALKVRYPDRITLIRGNHESRQITQVYGFYDECLRKYGSTAVWRYCTEIFDYLSLSAIIDGKIFCVHGGLSPSIQYLDQIRSIDRKQEVPHDGPMCDLLWSDPEDQTGWGVSPRGAGYLFGSDVVSQFNRTNDIDMICRAHQLVMEGFKWHFNETVLTVWSAPNYCYRCGNVAAILELNEYLHRDFVIFEAAPQESRGIPSKKPQADYFL
modifications: 35S-methionine labelled
Take B1: the binding entry in test [1] is recorded as “no binding”.

B2: ^35S-Met-labelled full-length CENP-C (IVTT) (protein, UniProt Q9VHP9 1-1411)
chain: T1 sequence
modifications: 35S-methionine labelled
On to B2, for which the results for the binding entry in test [2] and in test [3] were “binds” and “no binding”, respectively.

B3: ^35S-Met-labelled CENP-C^FBD (IVTT) (domain or fragment, UniProt Q9VHP9 1002-1093)
chain: IDQNSDDVPSRNPSPSRTLLSDDVPSTSRAALEFLQRSQNMSKSRPPDESSADVVFKKPLAPAPRAKSKKGKSEVDKLKLAKMPVEAEELNT
modifications: 35S-methionine labelled
For B3, the binding entry in test [2] is reported as “binds”; in test [4], “binds”; in test [5], “no binding”.
